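Compound exposure: 48 hours, 5 concentrations, 96-well plates. TGI is the concentration that stops growth completely.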 For part of its entries the source gives two or more results. The list is limited to them. There may be further records. Records of one sample usually come from different ranges of test concentrations, which the source does not state; a value can be the end of its range.
Key:
Assay in all cases: inhibition of tumour cell growth, NCI panel, 48 h
[1] = test system: SK-OV-3 ovarian
[2] = test system: DU-145 prostate
[3] = test system: HCT-116 colon
[4] = test system: MCF7 breast
[5] = test system: CAKI-1 renal
[6] = test system: TK-10 renal

## CCC(C)SC1SCC2C(=O)N(C)C3(CC3C)C(=O)OCC(NC(=O)c3nc4ccccc4cc3O)C(=O)NC(C)C(=O)N(C)C1C(=O)N(C)C1(CC1C)C(=O)OCC(NC(=O)c1nc3ccccc3cc1O)C(=O)NC(C)C(=O)N2C (stereo unspecified)
[1]
  TGI: 65.1 nM and 2.67 µM
[2]
  TGI: 64.5 nM and 10.6 µM
[3]
  TGI: 19.1 nM and 1.93 µM
[4]
  TGI: 4.66 nM and 31.5 µM
[5]
  TGI: 0.422 nM and 7.8 µM
[6]
  TGI: 4.63 µM [mean of 2 tests] and 40.1 nM [mean of 3 tests]

— PubChem BioAssay (NCI)
